In paper PMC4336329 (PLoS ONE, 2015):
Out of some 310,000 compounds screened, about 2,200 (0.71%) showed an effect of 50% or more. Effects have a minus sign here. Some of the results follow.

The compounds below were run against human ether-à-go-go-related gene (hERG) potassium channel (human, UniProt Q12809) (assay: primary screen, population patch clamp on CHO cells stably expressing hERG).
Sequence of human ether-à-go-go-related gene (hERG) potassium channel (Q12809 whole entry, looked up): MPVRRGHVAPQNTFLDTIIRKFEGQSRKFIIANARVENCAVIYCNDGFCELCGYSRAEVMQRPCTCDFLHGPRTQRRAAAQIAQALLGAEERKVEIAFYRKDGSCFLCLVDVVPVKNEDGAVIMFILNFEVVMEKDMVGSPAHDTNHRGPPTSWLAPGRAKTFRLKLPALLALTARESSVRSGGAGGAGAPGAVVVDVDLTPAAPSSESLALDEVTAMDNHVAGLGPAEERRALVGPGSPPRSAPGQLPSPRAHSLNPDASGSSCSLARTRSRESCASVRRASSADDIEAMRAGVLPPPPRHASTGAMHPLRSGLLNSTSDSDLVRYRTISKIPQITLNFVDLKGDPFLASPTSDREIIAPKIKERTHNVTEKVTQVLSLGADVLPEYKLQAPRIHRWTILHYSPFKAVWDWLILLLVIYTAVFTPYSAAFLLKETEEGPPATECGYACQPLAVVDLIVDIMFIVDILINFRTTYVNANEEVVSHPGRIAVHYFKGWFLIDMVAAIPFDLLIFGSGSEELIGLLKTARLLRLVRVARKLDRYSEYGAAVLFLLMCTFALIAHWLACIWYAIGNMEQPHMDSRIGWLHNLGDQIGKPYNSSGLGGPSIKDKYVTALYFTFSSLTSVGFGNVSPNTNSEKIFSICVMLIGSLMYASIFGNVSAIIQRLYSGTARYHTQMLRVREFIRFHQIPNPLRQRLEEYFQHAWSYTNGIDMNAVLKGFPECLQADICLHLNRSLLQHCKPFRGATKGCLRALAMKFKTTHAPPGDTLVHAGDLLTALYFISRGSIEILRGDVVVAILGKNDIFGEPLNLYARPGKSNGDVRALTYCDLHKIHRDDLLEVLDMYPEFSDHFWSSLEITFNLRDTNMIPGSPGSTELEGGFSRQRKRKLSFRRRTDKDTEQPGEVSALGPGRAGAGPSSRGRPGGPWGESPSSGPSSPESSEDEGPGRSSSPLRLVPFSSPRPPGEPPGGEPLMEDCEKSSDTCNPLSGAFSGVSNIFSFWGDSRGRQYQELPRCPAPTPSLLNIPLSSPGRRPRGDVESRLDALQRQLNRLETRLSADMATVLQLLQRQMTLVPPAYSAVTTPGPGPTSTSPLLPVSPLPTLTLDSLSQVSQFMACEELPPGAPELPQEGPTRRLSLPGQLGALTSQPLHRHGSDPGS
In the case of `CCn1c(CC(=O)Nc2ccc(C)c(Cl)c2)nnc1SCc1ccc(Cl)c(Cl)c1`, the “hERG current change (%, negative = inhibition) at 1uM” value is reported as -0.657%. With `Cc1ccccc1-c1nnc2c3ccccc3c(C)nn12` the “hERG current change (%, negative = inhibition) at 1uM” value was 12.5%. In the case of `O=C(Nc1ccccn1)c1cccs1`, the “hERG current change (%, negative = inhibition) at 1uM” value is reported as 2.63%. In the case of `O=C(O)CNc1nc(-c2ccccc2)c2cc([N+](=O)[O-])ccc2n1`, the “hERG current change (%, negative = inhibition) at 1uM” value is reported as 19.4%. In the case of `O=[N+]([O-])c1cc(-c2n[nH]c(-c3ccccc3)n2)cc([N+](=O)[O-])c1`, the “hERG current change (%, negative = inhibition) at 1uM” value is reported as 12.2%. `Cc1ccc(-c2nnc(SCC(=O)N3CCCc4ccccc43)n2N)cc1` was tested, and the “hERG current change (%, negative = inhibition) at 1uM” value was 8.76%. With `Cc1[nH]c2ccccc2c1SCC(=O)N1CCCCC1` the “hERG current change (%, negative = inhibition) at 1uM” value was 17.7%. `CCOC(=O)C1CC2CC(C1)CN(C(=O)C1CCCCC1)C2` (stereo not shown) was tested, and the “hERG current change (%, negative = inhibition) at 1uM” value was 11.2%. For `CCOc1cc(CN2CCN(c3cccc(C(F)(F)F)c3)CC2)ccc1O`, the “hERG current change (%, negative = inhibition) at 1uM” value was -2.82%. `C=CCn1cccc(C(=O)Nc2ccc(C)c(Cl)c2)c1=O` was tested, and the “hERG current change (%, negative = inhibition) at 1uM” value was 6.75%. With `COc1ccc(C(C(=O)OC(C)CN(C)C)c2ccccc2)cc1.Cl` (stereo not shown) the “hERG current change (%, negative = inhibition) at 1uM” value was -8.15%. `COC(=O)c1ccccc1-c1ccc(/C=C2\C(=O)N(c3ccccc3)N=C2c2ccccc2)o1` was tested, and the “hERG current change (%, negative = inhibition) at 1uM” value was 5.03%. `CC(=O)c1ccc(NC(=O)C2CCN(S(=O)(=O)c3cccs3)CC2)cc1` was tested, and the “hERG current change (%, negative = inhibition) at 1uM” value was 5.76%. In the case of `c1ccc(-n2nnnc2Oc2cccc3cccnc23)cc1`, the “hERG current change (%, negative = inhibition) at 1uM” value is reported as 14.3%. For `O=C(c1ccco1)N1CCN(c2nc(-c3ccc(F)cc3)cs2)CC1`, the “hERG current change (%, negative = inhibition) at 1uM” value was 1.54%. In the case of `O=C(CNC(=O)c1ccc(Br)o1)NNC(=O)c1cccc(Cl)c1`, the “hERG current change (%, negative = inhibition) at 1uM” value is reported as -9.56%. With `Cc1cccc(C)c1NC1=C(Cl)C(=O)OC1OC(=O)c1ccccc1` (stereo not shown) the “hERG current change (%, negative = inhibition) at 1uM” value was 13.9%. For `CCc1ccc(C2NC(=S)NC3=C2C(=O)N(c2ccccc2OC)C(c2ccc(CC)cc2)N3)cc1` (stereo not shown), the “hERG current change (%, negative = inhibition) at 1uM” value was 2.32%. For `CCOc1ccc(NC(=O)COc2ccc(C(=O)NCc3cccc(OC)c3)cc2OC)cc1`, the “hERG current change (%, negative = inhibition) at 1uM” value was 4.5%. In the case of `COc1ccccc1CNC(=O)c1cnccn1`, the “hERG current change (%, negative = inhibition) at 1uM” value is reported as 5.91%. For `Cc1nc([N+](=O)[O-])cn1CCC#N`, the “hERG current change (%, negative = inhibition) at 1uM” value was 6.54%. In the case of `O=C1CCc2cc(NS(=O)(=O)c3ccc(Br)cc3)cc3c2N1CC3`, the “hERG current change (%, negative = inhibition) at 1uM” value is reported as -0.938%. For `CC(c1n[nH]c(=S)n1Cc1ccccc1)N(C)C` (stereo not shown), the “hERG current change (%, negative = inhibition) at 1uM” value was 7.92%. With `O=C(Cc1ccc2c(c1)OCCO2)c1c(O)cc(O)cc1O` the “hERG current change (%, negative = inhibition) at 1uM” value was 7.12%. In the case of `NC(=S)N/N=C1\CC(c2ccc3c(c2)OCCO3)Oc2ccc(F)cc21` (stereo not shown), the “hERG current change (%, negative = inhibition) at 1uM” value is reported as 15.3%. `COc1cc(/C=C/C(=O)OCC(=O)NC(=O)NC(C)C)cc(S(=O)(=O)N2CCc3ccccc32)c1OC` was tested, and the “hERG current change (%, negative = inhibition) at 1uM” value was 5.77%. With `Cc1c(NC(=O)COC(=O)c2c3c(nc4ccccc24)CCCC3)c(=O)n(-c2ccccc2)n1C` the “hERG current change (%, negative = inhibition) at 1uM” value was 11.9%. In the case of `Cc1nc(Cl)c(S(N)(=O)=O)c(C)c1Cl`, the “hERG current change (%, negative = inhibition) at 1uM” value is reported as 10.3%. For `COc1ccc(CCNS(=O)(=O)c2ccc3c(c2)CC(C)N3C(C)=O)cc1OC` (stereo not shown), the “hERG current change (%, negative = inhibition) at 1uM” value was -2.97%. `Cc1cccc(NC(=S)N(Cc2ccc(Br)cc2)Cc2ccc(C(=O)O)cc2)c1` was tested, and the “hERG current change (%, negative = inhibition) at 1uM” value was 12.7%. In the case of `Cc1cc(C)nc(-n2ncc(C#N)c2N)n1`, the “hERG current change (%, negative = inhibition) at 1uM” value is reported as 8.82%. `O=S(=O)(Nc1ccc(Br)cc1)N1CCOCC1` was tested, and the “hERG current change (%, negative = inhibition) at 1uM” value was 6.85%. In the case of `CC(=O)N1CCN(CC(C)(C)NS(=O)(=O)c2ccc(C)cc2)CC1`, the “hERG current change (%, negative = inhibition) at 1uM” value is reported as 6.35%. For `N#Cc1c(N)nc2c(c1N)CC(C(F)(F)F)O2` (stereo not shown), the “hERG current change (%, negative = inhibition) at 1uM” value was 19%. For `COc1ccccc1NC(=O)c1ccc(NC(=O)COC(=O)CC(NC(=O)c2ccccc2Cl)c2ccccc2)cc1` (stereo not shown), the “hERG current change (%, negative = inhibition) at 1uM” value was 14%. For `Cc1ccnc(NC(=O)c2ccc3c(c2)C(=O)N(CC(C)C)C3=O)c1`, the “hERG current change (%, negative = inhibition) at 1uM” value was 12.5%. `CC(=O)c1ccc(C(=O)N2CCC(CO)(Cc3cccc(C(F)(F)F)c3)CC2)cc1` was tested, and the “hERG current change (%, negative = inhibition) at 1uM” value was -33.1%. With `COc1ccc2[nH]c(=O)c(CN(Cc3cccnc3)Cc3nnnn3CC3CCCO3)cc2c1` (stereo not shown) the “hERG current change (%, negative = inhibition) at 1uM” value was 10.9%. In the case of `COc1ccc(OCCNC(=O)CCCO)cc1`, the “hERG current change (%, negative = inhibition) at 1uM” value is reported as 11.7%. In the case of `COc1ccc(C2CCCN2C(=O)Nc2ccccc2)cc1OC` (stereo not shown), the “hERG current change (%, negative = inhibition) at 1uM” value is reported as 4.51%. With `CC(=O)c1cccc(N2C(=O)CC(N3CCN(S(=O)(=O)c4ccc(Cl)cc4)CC3)C2=O)c1` (stereo not shown) the “hERG current change (%, negative = inhibition) at 1uM” value was 1.19%. With `COCCOc1cc(N)c(Cl)cc1Cl` the “hERG current change (%, negative = inhibition) at 1uM” value was 7.73%. For `COc1cc2c(C(=O)NCc3ccccn3)cn(CC(C)C)c(=O)c2cc1OC`, the “hERG current change (%, negative = inhibition) at 1uM” value was 14.1%. In the case of `COc1ccc(N2C=C3C(=O)C(C)(OC(=O)CCc4ccccc4)C(=O)C=C3C=C2c2ccc(C#N)cc2)cc1` (stereo not shown), the “hERG current change (%, negative = inhibition) at 1uM” value is reported as 14.6%. `O=S(=O)(c1ccc(Cl)s1)N1CCCc2cccc(O)c21` was tested, and the “hERG current change (%, negative = inhibition) at 1uM” value was 16.7%. With `CC(=O)Nc1ccc(S(=O)(=O)Nc2ccc(S(=O)(=O)N3CCCCCC3)cc2)cc1` the “hERG current change (%, negative = inhibition) at 1uM” value was 7.65%. In the case of `COc1cc(CN2CC(=O)N(c3cccc(Cl)c3C)C2=S)cc(OC)c1OC`, the “hERG current change (%, negative = inhibition) at 1uM” value is reported as 11.6%. With `CCOCCOC(=O)c1ccc(-n2cnc(C)n2)nc1` the “hERG current change (%, negative = inhibition) at 1uM” value was 5.74%. With `Cc1ccc(NC(=O)CSc2nc(-c3ccco3)cc(C(F)(F)F)n2)cc1C` the “hERG current change (%, negative = inhibition) at 1uM” value was -4.17%. `CC1CCCC(NC(=O)COC(=O)c2cccc(NS(=O)(=O)/C=C/c3ccccc3)c2)C1C` (stereo not shown) was tested, and the “hERG current change (%, negative = inhibition) at 1uM” value was 15%. `CN(C)S(=O)(=O)c1ccc2[nH]cc(/C=C/c3nc4ccccc4c(=O)n3-c3ccccc3)c2c1` was tested, and the “hERG current change (%, negative = inhibition) at 1uM” value was 12.4%. With `Cc1ccc2cc(-c3noc(C4CCCCC4)n3)c(=O)[nH]c2c1` the “hERG current change (%, negative = inhibition) at 1uM” value was 12.8%. With `Cc1ccc(C(=O)Nc2cccnc2)cc1Cl` the “hERG current change (%, negative = inhibition) at 1uM” value was 9%. For `CCOc1ccc(NC(=O)CCNS(=O)(=O)c2ccc3c(c2)CC(C)N3C(C)=O)cc1` (stereo not shown), the “hERG current change (%, negative = inhibition) at 1uM” value was 12.6%. In the case of `CCCCNCC1C(Oc2ccc(Cl)cc2)C(=O)N1c1ccccc1C.Cl` (stereo not shown), the “hERG current change (%, negative = inhibition) at 1uM” value is reported as 2.69%.
